This is one part of the list.
B1: chr1:85267750:85267865:-|CDS|ENSG00000142867|unk|total|mutant (ssRNA)
RNA: GGGAGUUCUACAGUCCGACGAUCAGGAGAAUCCAGCACGACGCCCUUUUUUUCUACUAAUUCUUCUCUGAAUUUGCCUGUUCCCGAAGCCGGCAGAACUGAAAAUACCAUCUUCUCUUCAACUACACUUCCCAGACCUGGGGACAACAGAGGAUUGAGCAUCA
B2: ENSG00000198589:be:win_6551|CDS|ENSG00000198589|bound_else_gene|NA|bound_elsewhere_windowed (ssRNA)
RNA: GGGAGUUCUACAGUCCGACGAUCGACGUAUUUCAUUAGCUAGUCCACGUCAGCUUUUUAAGGCUUCUAAUAUGACCCAGCGAUGGCAACACAGAGAGAUAUCUAAUUUUGAGUACUUGAUGUUUCUCAACACGAUAGCAGGACCAACAGAGGAUUGAGCAUCA
B3: chr3:170361105:170361226:+|CDS|ENSG00000136603|unk|total|mutant (ssRNA)
RNA: GGGAGUUCUACAGUCCGACGAUCAAGCUCAUUGGCCCAGUUAAAGGAAACUGGCAGUGCCUUUGAAGUGGAGCAUGAAUGCCCCGGCAAAUGUCAGGGUUUAUUUGCACCCCAGUUUUAUGUUCAGCCUGAUGCUCCGUGUAUCAACAGAGGAUUGAGCAUCA
B4: chr7:88283957:88284065:-|CDS|ENSG00000127954|unk|total|mutant (ssRNA)
RNA: GGGAGUUCUACAGUCCGACGAUCCAGUGGUGCAGAAGUCUUGAGCUAUUCAGAAGCAGCCAAGAAGUCUGGCAUCAUAAUCACCGCAAUCCACAGAGAGCAUUAUGAUUUUCUCACAGAAUUAACUGAGGUUCUCAAUGGAAACAACAGAGGAUUGAGCAUCA
B5: chr12:108783210:108783311:-|3pUTR|ENSG00000084112|msi1|total|mutant (ssRNA)
RNA: GGGAGUUCUACAGUCCGACGAUCUGUUUAUCCUGCUAUGCAGUUUUACAUUGUGUGUUCACAUCUAUUCCAAGGAGCCUUGCCCGAAACAACACUGGCGGUUCCUGCAGGCCAGGCAGGCAUUGGCCCAUGCUGUGUCCCAUACAACAGAGGAUUGAGCAUCA
B6: chr16:56429670:56429771:-|3pUTR|ENSG00000167005|msi1|FALSE|unique (ssRNA)
RNA: GGGAGUUCUACAGUCCGACGAUCCAAUCACUGAGACUGCAUCAGAGUUUGCAAUUUUGUAUGUUUCAUUGCCAAAGAAGGCUUAGUGGUUGUUGACUGUAGUAUAAGUCAGCUUUCUGUAGCAUAAGAUUUGAUUUUCCCAUACAACAGAGGAUUGAGCAUCA

What follows are binders tested against MSI1 full-length (mouse, UniProt Q61474 1-362) (assay: nsRBNS (natural sequence RNA bind-n-seq); RBNS binding buffer (assumed for nsRBNS): 25 mM Tris pH 7.5, 150 mM KCl, 3 mM MgCl2, 0.01% Triton X-100, 500 ug/ml BSA, 20 U/ml SUPERase-In, 4 C; UNK is unkempt and MSI1 is Musashi-1; names of the RNAs are library labels; protein concentration not given here; high values mean tight binding).
Sequence of UniProt Q61474 (Q61474 whole entry): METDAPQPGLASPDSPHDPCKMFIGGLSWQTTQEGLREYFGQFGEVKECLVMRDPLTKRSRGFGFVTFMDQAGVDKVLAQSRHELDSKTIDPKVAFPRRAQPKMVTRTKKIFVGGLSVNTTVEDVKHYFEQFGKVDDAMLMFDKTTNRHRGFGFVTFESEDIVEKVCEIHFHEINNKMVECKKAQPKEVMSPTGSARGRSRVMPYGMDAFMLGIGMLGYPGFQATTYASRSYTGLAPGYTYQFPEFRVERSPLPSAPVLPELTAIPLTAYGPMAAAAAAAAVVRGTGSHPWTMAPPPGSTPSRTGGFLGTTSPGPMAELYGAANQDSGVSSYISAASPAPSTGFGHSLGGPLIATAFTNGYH

| Binder | binding signal [enrichment R] |
| --- | --- |
| B1 | 0.454 |
| B2 | 1.43 |
| B3 | 0.316 |
| B4 | 0.239 |
| B5 | 0.859 |
| B6 | 2.88 |
